Where a name gives a salt, the structure may show the parent alone. In all, about 1,900 compounds were measured (“cell viability of compound + 1 nM pemigatinib relative to pemigatinib-only (DMSO) wells”: median about 0.95, lowest 2% from about 0.22 on). This is one part of the list.
System: PDC-DUC18828
Test: cell viability of compound + 1 nM pemigatinib relative to pemigatinib-only (DMSO) wells (fraction); PDC-DUC18828 is a patient-derived cholangiocarcinoma cell line; higher = less growth inhibition
Conditions: first compound 1 µM; pemigatinib concentration 1 nM; 72 h
Procedure: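 Selleck Bioactive library screen in the patient-derived FGFR2 fusion-positive ICC cell line PDC-DUC18828 (500 cells/well). Each compound was tested at 1 uM with 1 nM pemigatinib, in triplicate, for 72 h. Viability was read by CellTiter-Glo and normalised to plate DMSO controls. Value is the paper's averaged normalised viability.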

In order of falling cell viability:
1. CC(C)c1cnn2c(NCc3ccccc3)cc(NCCCCCCN)nc12 + CCN1C(=O)N(c2c(F)c(OC)cc(OC)c2F)Cc2cnc3[nH]c(CN4CCOCC4)cc3c21 [pemigatinib]  1.06
2. O=S(=O)(c1cccc2cnccc12)N1CCCNCC1 [Fasudil (HA-1077) HCl] + CCN1C(=O)N(c2c(F)c(OC)cc(OC)c2F)Cc2cnc3[nH]c(CN4CCOCC4)cc3c21 [pemigatinib]  1.05
3. CC(C)[C@H](O)C(=O)N[C@@H](C)C(=O)N[C@@H]1C(=O)N(C)CCc2ccccc21 + CCN1C(=O)N(c2c(F)c(OC)cc(OC)c2F)Cc2cnc3[nH]c(CN4CCOCC4)cc3c21 [pemigatinib]  1.04
4. Nc1ccc(/N=N/c2ccccc2)c(N)n1 [Phenazopyridine HCl] + CCN1C(=O)N(c2c(F)c(OC)cc(OC)c2F)Cc2cnc3[nH]c(CN4CCOCC4)cc3c21 [pemigatinib]  1.03
5. OCC(CO)N[C@H]1C[C@](O)(CO)[C@@H](O)[C@H](O)[C@H]1O [Voglibose] + CCN1C(=O)N(c2c(F)c(OC)cc(OC)c2F)Cc2cnc3[nH]c(CN4CCOCC4)cc3c21 [pemigatinib]  1.03
6. CCCc1nn(C)c2c(=O)[nH]c(-c3cc(S(=O)(=O)N4CCN(C)CC4)ccc3OCC)nc12 [Sildenafil Citrate] + CCN1C(=O)N(c2c(F)c(OC)cc(OC)c2F)Cc2cnc3[nH]c(CN4CCOCC4)cc3c21 [pemigatinib]  1.02
7. Cc1cccc(C)c1OCC(=O)N[C@@H](Cc1ccccc1)[C@@H](O)C[C@H](Cc1ccccc1)NC(=O)[C@H](C(C)C)N1CCCNC1=O [Lopinavir] + CCN1C(=O)N(c2c(F)c(OC)cc(OC)c2F)Cc2cnc3[nH]c(CN4CCOCC4)cc3c21 [pemigatinib]  1.02
8. Cc1c(C(=O)Nc2ccc(N3C[C@@H](C)O[C@@H](C)C3)nc2)cccc1-c1ccc(OC(F)(F)F)cc1 [LDE225 (NVP-LDE225,Erismodegib)] + CCN1C(=O)N(c2c(F)c(OC)cc(OC)c2F)Cc2cnc3[nH]c(CN4CCOCC4)cc3c21 [pemigatinib]  1.01
9. CCc1ccc(/C=C2/SC(=S)NC2=O)cc1 + CCN1C(=O)N(c2c(F)c(OC)cc(OC)c2F)Cc2cnc3[nH]c(CN4CCOCC4)cc3c21 [pemigatinib]  1.01
10. CCOC(=O)c1ccc(NC2CCCCC2)c(N)c1 [Ferrostatin-1 (Fer-1)] + CCN1C(=O)N(c2c(F)c(OC)cc(OC)c2F)Cc2cnc3[nH]c(CN4CCOCC4)cc3c21 [pemigatinib]  1
11. O=C(O)c1ccccc1Nc1cccc(C(F)(F)F)c1 [Flufenamic acid] + CCN1C(=O)N(c2c(F)c(OC)cc(OC)c2F)Cc2cnc3[nH]c(CN4CCOCC4)cc3c21 [pemigatinib]  0.985
12. Cc1cnc(NC(=O)Nc2cc(Br)c(C)cc2OC[C@@H]2CNCCO2)cn1 + CCN1C(=O)N(c2c(F)c(OC)cc(OC)c2F)Cc2cnc3[nH]c(CN4CCOCC4)cc3c21 [pemigatinib]  0.977
13. CCCCC(=O)N(Cc1ccc(-c2ccccc2-c2nnn[nH]2)cc1)[C@H](C(=O)O)C(C)C [Valsartan] + CCN1C(=O)N(c2c(F)c(OC)cc(OC)c2F)Cc2cnc3[nH]c(CN4CCOCC4)cc3c21 [pemigatinib]  0.968
14. Nc1ccc(C(=O)O)c(O)c1 [Sodium 4-Aminosalicylate] + CCN1C(=O)N(c2c(F)c(OC)cc(OC)c2F)Cc2cnc3[nH]c(CN4CCOCC4)cc3c21 [pemigatinib]  0.961
15. Clc1ccc(C(c2ccccc2Cl)C(Cl)Cl)cc1 (stereo not drawn) [Mitotane] + CCN1C(=O)N(c2c(F)c(OC)cc(OC)c2F)Cc2cnc3[nH]c(CN4CCOCC4)cc3c21 [pemigatinib]  0.948
16. N#CC[C@H](C1CCCC1)n1cc(-c2ncnc3[nH]ccc23)cn1 + CCN1C(=O)N(c2c(F)c(OC)cc(OC)c2F)Cc2cnc3[nH]c(CN4CCOCC4)cc3c21 [pemigatinib]  0.946
17. CC(NCCc1ccc(O)cc1)C(O)c1ccc(O)cc1 (stereo not drawn) [Ritodrine HCl] + CCN1C(=O)N(c2c(F)c(OC)cc(OC)c2F)Cc2cnc3[nH]c(CN4CCOCC4)cc3c21 [pemigatinib]  0.937
18. COc1cc2nc(N3CCCN(C)CC3)nc(NC3CCN(Cc4ccccc4)CC3)c2cc1OC + CCN1C(=O)N(c2c(F)c(OC)cc(OC)c2F)Cc2cnc3[nH]c(CN4CCOCC4)cc3c21 [pemigatinib]  0.935
19. CCCCN1CCCC[C@H]1C(=O)Nc1c(C)cccc1C [Levobupivacaine HCl] + CCN1C(=O)N(c2c(F)c(OC)cc(OC)c2F)Cc2cnc3[nH]c(CN4CCOCC4)cc3c21 [pemigatinib]  0.924
20. O=c1cc(N2CCOCC2)oc2c(-c3ccccc3)cccc12 + CCN1C(=O)N(c2c(F)c(OC)cc(OC)c2F)Cc2cnc3[nH]c(CN4CCOCC4)cc3c21 [pemigatinib]  0.922
21. O=C1O[C@H]([C@@H](O)CO)C(O)=C1O [Vitamin C] + CCN1C(=O)N(c2c(F)c(OC)cc(OC)c2F)Cc2cnc3[nH]c(CN4CCOCC4)cc3c21 [pemigatinib]  0.918
22. CNCc1ccc(C)c(NC(=O)c2ccc(Nc3nc(-c4ccccc4)c4ccccc4n3)cc2)c1 + CCN1C(=O)N(c2c(F)c(OC)cc(OC)c2F)Cc2cnc3[nH]c(CN4CCOCC4)cc3c21 [pemigatinib]  0.913
23. CCCc1cc2c(N3CCN(C4=NCC(C)(C)S4)CC3)ncnc2s1 [MI-2 (Menin-MLL Inhibitor)] + CCN1C(=O)N(c2c(F)c(OC)cc(OC)c2F)Cc2cnc3[nH]c(CN4CCOCC4)cc3c21 [pemigatinib]  0.902
24. COc1cc(CCc2cc(NC(=O)c3ccc(N4CC(C)NC(C)C4)cc3)n[nH]2)cc(OC)c1 (stereo not drawn) + CCN1C(=O)N(c2c(F)c(OC)cc(OC)c2F)Cc2cnc3[nH]c(CN4CCOCC4)cc3c21 [pemigatinib]  0.875
25. Cc1ccc(Nc2nccc(N(C)c3ccc4c(C)n(C)nc4c3)n2)cc1S(N)(=O)=O [Pazopanib] + CCN1C(=O)N(c2c(F)c(OC)cc(OC)c2F)Cc2cnc3[nH]c(CN4CCOCC4)cc3c21 [pemigatinib]  0.861
26. CC(C)(O)CC(=O)NCCn1ccc2ncnc(Nc3ccc(Oc4cccc(C(F)(F)F)c4)c(Cl)c3)c21 + CCN1C(=O)N(c2c(F)c(OC)cc(OC)c2F)Cc2cnc3[nH]c(CN4CCOCC4)cc3c21 [pemigatinib]  0.847
27. Cc1ccc(Sc2cncc3sc(C(N)=O)cc23)cc1 + CCN1C(=O)N(c2c(F)c(OC)cc(OC)c2F)Cc2cnc3[nH]c(CN4CCOCC4)cc3c21 [pemigatinib]  0.836
28. CCC(=O)O[C@]1(C(=O)SCF)[C@H](C)C[C@H]2[C@@H]3C[C@H](F)C4=CC(=O)C=C[C@]4(C)[C@@]3(F)[C@@H](O)C[C@@]21C [Fluticasone propionate] + CCN1C(=O)N(c2c(F)c(OC)cc(OC)c2F)Cc2cnc3[nH]c(CN4CCOCC4)cc3c21 [pemigatinib]  0.834
29. Cc1[nH]nc2ccc(-c3cncc(OC[C@@H](N)Cc4ccccc4)c3)cc12 + CCN1C(=O)N(c2c(F)c(OC)cc(OC)c2F)Cc2cnc3[nH]c(CN4CCOCC4)cc3c21 [pemigatinib]  0.826
30. C[C@H](Nc1ncnc2nc[nH]c12)c1cc2cccc(Cl)c2c(=O)n1-c1ccccc1 + CCN1C(=O)N(c2c(F)c(OC)cc(OC)c2F)Cc2cnc3[nH]c(CN4CCOCC4)cc3c21 [pemigatinib]  0.793
31. Cc1c(C(=O)N2CCOc3ccc(-c4ccc(N)nc4)cc3C2)ccc(S(C)(=O)=O)c1F + CCN1C(=O)N(c2c(F)c(OC)cc(OC)c2F)Cc2cnc3[nH]c(CN4CCOCC4)cc3c21 [pemigatinib]  0.732
32. COc1cc(Nc2ncc3c(n2)-c2ccc(Cl)cc2C(c2c(F)cccc2OC)=NC3)ccc1C(=O)O [Alisertib (MLN8237)] + CCN1C(=O)N(c2c(F)c(OC)cc(OC)c2F)Cc2cnc3[nH]c(CN4CCOCC4)cc3c21 [pemigatinib]  0.621
33. O=C(c1ccc(F)c(F)c1Nc1ccc(I)cc1F)N1CC(O)([C@@H]2CCCCN2)C1 [Cobimetinib (GDC-0973, RG7420)] + CCN1C(=O)N(c2c(F)c(OC)cc(OC)c2F)Cc2cnc3[nH]c(CN4CCOCC4)cc3c21 [pemigatinib]  0.592
34. Nc1cc(C(F)(F)F)c(-c2cc(N3CCOCC3)nc(N3CCOCC3)n2)cn1 [BKM120 (NVP-BKM120, Buparlisib)] + CCN1C(=O)N(c2c(F)c(OC)cc(OC)c2F)Cc2cnc3[nH]c(CN4CCOCC4)cc3c21 [pemigatinib]  0.546
35. COc1cccc(-c2cc(F)ccc2C2Cc3nc(N)nc(C)c3C(=O)N2)n1 (stereo not drawn) + CCN1C(=O)N(c2c(F)c(OC)cc(OC)c2F)Cc2cnc3[nH]c(CN4CCOCC4)cc3c21 [pemigatinib]  0.297
36. O=C1c2c(O)ccc(O)c2C(=O)c2c(NCCNCCO)ccc(NCCNCCO)c21 [Mitoxantrone] + CCN1C(=O)N(c2c(F)c(OC)cc(OC)c2F)Cc2cnc3[nH]c(CN4CCOCC4)cc3c21 [pemigatinib]  0.241
37. O=C1c2c(O)ccc(O)c2C(=O)c2c(NCCNCCO)ccc(NCCNCCO)c21 [Mitoxantrone HCl] + CCN1C(=O)N(c2c(F)c(OC)cc(OC)c2F)Cc2cnc3[nH]c(CN4CCOCC4)cc3c21 [pemigatinib]  0.196
38. CC1(C)CC[C@]2(NC(=O)C(C)(F)F)CC[C@]3(C)[C@H](C(=O)C=C4[C@@]5(C)C=C(C#N)C(=O)C(C)(C)[C@@H]5CC[C@]43C)[C@@H]2C1 [Omaveloxolone (RTA-408)] + CCN1C(=O)N(c2c(F)c(OC)cc(OC)c2F)Cc2cnc3[nH]c(CN4CCOCC4)cc3c21 [pemigatinib]  0.042
